First the molecules themselves.
B1: TPR 5TU (parent)
chain: GGAUCUUCUCGAUCUAACAAAAAAGACAAAUCUGCCACAAAGCUUGAGAGCAUCUUCGGAUGCAGAGGCGGCAGCCUUCGGUGGCGCGAUAGCGCCAACGUUCUCAACUAUGACACGCAAAACGCGUGCUCCGUUGAAUGGAGUUUAUCAUG

This sample is rich in variants without activity.

In the data set the parent is B1. Kind of data set: polymerase ribozyme fitness, log enrichment relative to wild type (log ratio); higher = more active; in vitro selection for triplet polymerase activity. Put shortly:
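Fitness measures genotype enrichment against wild-type enrichment on a logarithmic scale, with inverse-variance-weighted averaging of replicates. The logarithm is base 2, and genotypes were kept only with ≥10 input reads and ≥1 read per output in Illumina sequencing. The sequenced libraries came from one triplicate in vitro selection round, including frozen incubation at −7 °C, of PCR-built, transcribed mutant libraries of each subunit of a heterodimeric triplet polymerase ribozyme.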
As to GGAUCUUCUCGAUCUAACAUAAAAGACAAAUCUGCCACAAAGCUUGAGAGCAUCUACGGAUGCAGAGGCGGCAGCCUUCGGUGGGGCGAUUGCGCCAACGUUCUCAACUAUGACACGCAAAACGCGUGCUCCGUUGAAUGGAGUUUAUCAUG [A20U U56A C85G A91U], the “polymerase ribozyme fitness (log ratio)” value is not above -4.2.

For GGAUCUUCUCGAUCUAACAUAAAAGACAAAUCUGCCACAAAGCUUGAGAGCAUGUUCGGAUGCAGAGGCGGCAGCCUUCGGUGGCGCGAUAGUGCCAACGUUCUCAACUUUGACACGCAAAACGCGUGGUCCGUUGAAUGGAGUUUAUCAUG [A20U C54G C93U A110U C129G], the “polymerase ribozyme fitness (log ratio)” value was not above -4.2.

Take GGAUCUUCUCGAUCUAACAUAAAAGACAAAUCUGCCACAAAGCUUGAGAGCAUCUUCGGAUGCAGAGGCGGCAGCCUUCGGUGGCGCGAUAGGGCCAACGUUCUCAACUAUGACACGCAAAUCGCGUGCUACGUUGAAUGGAGUUUAUCAGG [A20U C93G A122U C131A U151G]: the “polymerase ribozyme fitness (log ratio)” value is not above -4.2.

With GGAUCUUCUCGAUCUAACAUAAAAGACAAAUCUGCCACAAAGCUUGAGAGUAUCUUCGGAUGCAGAGGCGGCAGCCUUCGGUAGCGCGAUAGGGCUAACGUUAUAAACUAUGACACGCAAAACGCGUGCUCCGUUGAAUGGAGUUUAUCAUG [A20U C51U G83A C93G C96U C103A C105A], the “polymerase ribozyme fitness (log ratio)” value is not above -4.2.

With GGAUCUUCUCGAUCUAACAUAAAAGACAAAUCUGCCACAAAGCUUGAGAGUAUCUUCGGAUGCAGAGGCGGCAGCCUUCGGUGGCGCGAUAGCGCCAACGUUCUCAACUAUGACACGCAAAACGCGGGCUCCGUUGAAUGGAGUCUAUCAUG [A20U C51U U127G U145C], the “polymerase ribozyme fitness (log ratio)” value is not above -4.2.

As for GGAUCUUCUCGAUCUAACAUAAAAGACAAAUCUGCCACAAAGCUUGAGAGCAUCUUCGGAUGCAGAGGCGGCAGCCUUCGGUGGCGCUAUAGCGCCAACGUUCUCAACUAUGACACGCAAAACGCGUGCUCCGUUGAAUGGAGUUUAUCAUG [A20U G88U], the “polymerase ribozyme fitness (log ratio)” value is not above -4.2.

GGAUCUUCUCGAUCUAACAUAAAAGACAAAUCUGCCACAAAGCUUGAGAGCAUCGUCCGAUGCAGAGGCGGCAGCCUUCGGUGGCGCGAUAGCGCCAACGUUCUCAACUAUGACACGCAAUACGCGUACUCCGUUGAAUGGCGUUUAUCAUG [A20U U55G G58C A121U G128A A142C]: the “polymerase ribozyme fitness (log ratio)” value was not above -4.2.

For GGAUCUUCUCGAUCUAACAUAAAAGACAAAUCUGCCACAAAGCUUGAGAGCAUCUUCGGAUGCAGAGGCGGCAGACUUCGGUGGCCCGAUAGCGCCAACGUUCUCAACGAUGACACGCAAAUCGCGUGCUCCGUUGAAUGGAGUAUAUCAUG [A20U C75A G86C U109G A122U U145A], the “polymerase ribozyme fitness (log ratio)” value was not above -4.2.

Regarding GGAUCUUCUCGAUCUAACAUAAAAGACAAAUCUGCCACAAAGCUUGAGAGCAUCUUCAGCUGCAGAGGCGGCAGCCAUCGGUGACGCGAUAGCGCCAACGUUCUCAACUAUGACACGCAAAACGCGUGCUCCGUUGAAUGGAGUUUAUCAUG [A20U G58A A60C U77A G84A], the “polymerase ribozyme fitness (log ratio)” value is not above -4.2.

For the variant GGAUCUUCUCGAUCUAACAUAAAAGACAAAUCUGCCACAAAGCUUGAGAGCAUCUUCGGAAGCAGAGGCGGCAGCCUUCGGUGGCGCGAUAGCGCCAACGUUCUCAACUAUGACACGCAAAACGCGUGCUCCGUUGAAUGGAGUUUAUCAUG [A20U U61A], the “polymerase ribozyme fitness (log ratio)” value is -2.43.

As for GGAUCUUCUCGAUCUAACAUAAAAGACAAAUCUGCCACAAAGCUUGAGAGCAUCUUUGGAUGCAGAGGCGGCAGCCUUCGGUGGCGCGAUAGCGCCAACGUUCUCAACUAUGACACGCAAAACGCGUGCUCCGUUGAAUGGAGUUUAUCAUG [A20U C57U], the “polymerase ribozyme fitness (log ratio)” value was -2.23.

Turning to GGAUCUUCUCGAUCUAACAUAAAAGACAAAUCUGCCACAAAGCUUGAGAGCAUCUUCGAAUGCAGAGUCGGCAGCCUUCGGGCGCGCGAUAGGGCCAACGUUCUCAACUAUGACACGCAGAACGCGUGCUCCGUUGAAUGGAGUUUAUCAUG [A20U G59A G68U U82G G83C C93G A120G], the “polymerase ribozyme fitness (log ratio)” value was not above -4.2.

Regarding GGAUCUUCUCGAUCUAACAUAAAAGACAAAUCUGCCACAAAUCUUGAGAGCAUCGUCGGAUACAGAGGCGGCAGCCUUCGGUGGCGCGAUAGCGCCAACGUUCUCAACUAUGACACGCAAAACGCGUGCUCCGUUGAAUGGAGUUUAUCAUG [A20U G42U U55G G62A], the “polymerase ribozyme fitness (log ratio)” value was not above -4.2.

Regarding GGAUCUUCUCGAUCUAACAUAAAAGACAAAUCUGCCAAAAGGCUUGAGAGAAUCUUCGGAUGCAGAGGCGGCAGCCUUCGGUGGAGCGAGAGCGCCAACGUUCUCAACUAUGAUACGCAAAACGCGUGCUCCGUUGAAUGGAGUUUAUCAUG [A20U C38A A41G C51A C85A U90G C114U], the “polymerase ribozyme fitness (log ratio)” value is not above -4.2.

As to GGAUCUUCUCGAUCUAACAACCAAUACAUAUCUGCCACAAAGCUUGAGAGCAUCUUCGGCUGCAGCGGCGGCAGCCUUCGGUGGCGCGAUAGCGCCAACGUUCUCAACUAUGACACGCAAAACGCGUGCUCCGUUGAAUGGAGUUUAACCUG [A21C A22C G25U A29U A60C A66C U148A A150C], the “polymerase ribozyme fitness (log ratio)” value is not above -4.2.

For GGAUCUUCUCGAUCUAACAUAAAAGACAAAUCUGCCACAAACCUUGAGAGCAUCUUCGGAUGCAGAGGCGGCAGACUUCGGUGGCGCGAUAGCGCCAACGUUCUUAACUAUGACAUGCAGAACGCGUACUCCGUUGAAUGGAGUUAAUCAUG [A20U G42C C75A C105U C116U A120G G128A U146A], the “polymerase ribozyme fitness (log ratio)” value was not above -4.2.

With GGAUCUUCUCGAUCUAACAUAAAAGACAAAUCUGCCACAAAGCUUGAGAGCAUCUACGGAUGCAGAGGCGGCAGCUUUCGGUGGCGCGAUAGCGCCAACGUUCUCAACUAUGACACGCAAAACGCGUGCUCCAUUGAAUGGAGUUUAUCAUG [A20U U56A C76U G133A], the “polymerase ribozyme fitness (log ratio)” value was not above -4.2.

As for GGAUCUUCUCGAUCUAACAUAAAAGACAAAUCUGCCACAAAGCUUGAGAGCAUAUUCGGAUGCAGAGGCGGCAGCCUUCGGUGGCGCGAUAGCGCGAACGUUCUCAAGGAUGACACGGAAAACGCGUGCUCAGUUGAAUGGAAUUUAAUAUG [A20U C54A C96G C108G U109G C118G C132A G143A U148A C149U], the “polymerase ribozyme fitness (log ratio)” value was not above -4.2.

Regarding GGAUCUUCUCGAUCUAACAUAAAAGACAAAUCUGCCACAAAGCUUCAGAGCAUCUACGGAUGCAGAGGCGGCAGCCUUCGGUGGCGCGAUAGCGCUAACGUUCUCAACUAUGACACGCAAAACGCGUGCUCCGUCGAAUGGAGUUUGUCAUG [A20U G46C U56A C96U U135C A147G], the “polymerase ribozyme fitness (log ratio)” value is not above -4.2.

These data come from the RNAGym collection of RNA variant scans (doi:10.1073/pnas.2313332121).
